Test results as given in the supplement of paper PMC12645437, “Orthogonal IMiD-Degron Pairs Induce Selective Protein Degradation in Cells” (ACS Chemical Biology, 2025).
The other results are listed elsewhere or left out.

B1: Q9UKT9 (peptide)
chain: FGCNQCGRIFTQKGNLLRHIKL
B2: Q9UKT9 (peptide)
chain: FWCDQCGAQFTQKGNLLRHIKL
B3: Q9UKT9 (peptide)
chain: FQCDQCGAEFTQKGNLLRHIKL
B4: Q9UKT9 (peptide)
chain: FECPICGHMFTQKGNLLRHIKL
B5: Q9UKT9 (peptide)
chain: FHCNVCGADFTQKGNLLRHIKL
B6: Q9UKT9 (peptide)
chain: FKCPQCGACFTQKGNLLRHIKL
B7: Q9UKT9 (peptide)
chain: LNCEICGFECTQKGNLLRHIKL
B8: Q9UKT9 (peptide)
chain: FQCNQCGHFFTQKGNLLRHIKL
B9: Q9UKT9 (peptide)
chain: FSCEICGRRFTQKGNLLRHIKL
B10: Q9UKT9 (peptide)
chain: FYCDICGAFFTQKGNLLRHIKL
B11: Q9UKT9 (peptide)
chain: FRCPVCGANFTQKGNLLRHIKL
B12: Q9UKT9 (peptide)
chain: FQCEICGHAFTQKGNLLRHIKL
B13: Q9UKT9 (peptide)
chain: FTCEICGAAFTQKGNLLRHIKL
B14: Q9UKT9 (peptide)
chain: FACNICGAIFTQKGNLLRHIKL
B15: Q9UKT9 (peptide)
chain: FWCEQCGALFTQKGNLLRHIKL
B16: Q9UKT9 (peptide)
chain: FDCEQCGASFTQKGNLLRHIKL
B17: Q9UKT9 (peptide)
chain: FGCNQCGHTFTQKGNLLRHIKL
B18: Q9UKT9 (peptide)
chain: FKCNVCGADFTQKGNLLRHIKL
B19: Q9UKT9 (peptide)
chain: FDCPICGRWFTQKGNLLRHIKL
B20: Q9UKT9 (peptide)
chain: LYCPICGFKCTQKGNLLRHIKL
B21: Q9UKT9 (peptide)
chain: FECEICGAAFTQKGNLLRHIKL
B22: Q9UKT9 (peptide)
chain: FICSVCGHGFTQKGNLLRHIKL
B23: Q9UKT9 (peptide)
chain: FLCNICGAQFTQKGNLLRHIKL
B24: Q9UKT9 (peptide)
chain: LCCNQCGFMCTQKGNLLRHIKL
B25: Q9UKT9 (peptide)
chain: FMCNQCGHRFTQKGNLLRHIKL
B26: Q9UKT9 (peptide)
chain: FRCEQCGAFFTQKGNLLRHIKL
B27: Q9UKT9 (peptide)
chain: FYCPQCGAMFTQKGNLLRHIKL
B28: Q9UKT9 (peptide)
chain: FFCPICGAWFTQKGNLLRHIKL
B29: Q9UKT9 (peptide)
chain: LICNQCGFKCTQKGNLLRHIKL
B30: Q9UKT9 (peptide)
chain: FNCPICGHTFTQKGNLLRHIKL
B31: Q9UKT9 (peptide)
chain: FDCPICGAYFTQKGNLLRHIKL
B32: Q9UKT9 (peptide)
chain: FRCNVCGATFTQKGNLLRHIKL

molecular target: no compound (DMSO); test: log2 fold change of degron read counts, EGFP-low vs EGFP+ sorted cells; higher = lower degron-EGFP level without compound (poor expression or instability); settings: compound: DMSO control; 18 h
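Also: jurkat cells carrying a lentiviral library of mutant zinc finger degrons fused to EGFP plus mCherry, mCherry+ cells FACS sorted, degron abundance counted by next-generation sequencing.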

Sequence	log2 fold change of degron read counts
B1	1.04
B2	-1.56
B3	-2.51
B4	-0.596
B5	-1.46
B6	-1.04
B7	-0.567
B8	-0.054
B9	-0.891
B10	-0.268
B11	-0.199
B12	-2.37
B13	-1.61
B14	-0.158
B15	0.432
B16	-1.58

Sequence	log2 fold change of degron read counts
B17	-0.0759
B18	-2.37
B19	0.978
B20	0.191
B21	-2.13
B22	-0.726
B23	-0.505
B24	0.802
B25	-0.918
B26	-0.762
B27	0.157
B28	1.47
B29	-0.327
B30	-0.693
B31	-0.294
B32	-0.602
